Test results from PubChem BioAssay AID1240 (Sanford-Burnham Center for Chemical Genomics, 2008).
Screen size: about 50,000 compounds; about 800 (1.6%) showed an effect of 50% or more. The list shows a part of the results.

Molecular target: Bcl-2-like protein 10 (Homo sapiens) (UniProt Q9HD36)
Assay: Phenotype converters, Bcl-B/TR3 peptide binding displacement, primary biochemical FP (AID 1240);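 also: 0% = Bcl-B with tracer peptide and DMSO and 100% = tracer peptide lacking Bcl-B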
Settings: GST-Bcl-B / FITC-TR3 peptide fluorescence polarization; stronger effect = higher value; compound at 3.75 mg/L

Chain of UniProt Q9HD36 (Q9HD36 whole entry, looked up): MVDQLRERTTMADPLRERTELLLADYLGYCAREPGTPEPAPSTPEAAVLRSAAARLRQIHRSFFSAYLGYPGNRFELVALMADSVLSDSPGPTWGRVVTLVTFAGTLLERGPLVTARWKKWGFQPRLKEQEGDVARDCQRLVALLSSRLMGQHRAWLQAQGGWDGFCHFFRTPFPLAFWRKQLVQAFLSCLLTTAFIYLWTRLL

SMILES	displacement [%]
Cc1ccc(CN2CCN(/N=C/c3ccccc3C)CC2)cc1	11.6
CCn1c2ccccc2c2cc(CN3CCN(Cc4ccccc4OC)CC3)ccc21	1.8
COc1ccc2c(Cl)c(C(=O)Nc3ccc(Cl)cc3)sc2c1	2.4
CC1=NN(c2ccccc2)C(=O)/C1=C/c1ccc(OC2CSC2)cc1	1.4
O=[N+]([O-])c1ccc(N2CCN(S(=O)(=O)c3ccc(F)cc3)CC2)cc1	11.9
CCCC(=O)Nc1ccc2c(c1)Cc1ccccc1-2	-1.1
Cc1ccc(-c2nc3ccccc3o2)cc1NC(=O)c1cc(Cl)ccc1Cl	6.4
CC(=O)N1CCN(c2ccc(NC(=O)c3cc(I)ccc3Cl)cc2)CC1	13.4
COc1ccc(C2CC(=O)NC(SCC(=O)Nc3ccc(Br)cc3)=C2C#N)cc1OCc1ccccc1 (stereo unspecified)	2.5
COc1cc(C(=O)NC(NC(=S)Nc2cccc(Br)c2)C(Cl)(Cl)Cl)cc(OC)c1OC (stereo unspecified)	-16.6
O=C1/C(=C\c2ccc(OS(=O)(=O)c3ccccc3[N+](=O)[O-])cc2)SC(=S)N1c1ccccc1	-3.6
CCOC(=O)C1=C(C)N=c2s/c(=C\c3ccc(O)c(OC)c3)c(=O)n2C1c1ccc(OC)cc1 (stereo unspecified)	4.2
Cc1ccc(C(=O)Nc2c(C)ccc3nsnc23)cc1	0.3
COc1ccc(CN2CCN(C3CCN(Cc4ccccc4)CC3)CC2)cc1Br	-9.1
O=C1c2cc(Cl)c(Cl)cc2C(=O)N1c1cccc(O)c1	2.7
Cc1ccc(/C(O)=C2/C(=O)C(=O)N(CCCn3ccnc3)C2c2ccccc2)cc1 (stereo unspecified)	7.9
Cc1c(C(=O)N(Cc2ccccc2)c2ccccn2)cccc1[N+](=O)[O-]	-11.6
CCOc1cc(C(=O)NCCc2cccc(Cl)c2)cc(OCC)c1OCC	-2.2
O=C(CSc1ncn[nH]1)NCCOc1ccccc1	5.2
COc1cc(OC)cc(C(=O)Nc2ccc(O)c(-c3nc4ccccc4o3)c2)c1	-5.4
CCN1C(=O)CC(N2CCC(Cc3ccccc3)CC2)C1=O (stereo unspecified)	4.8
CCc1c(C)nc2cc(-c3ccccc3)[nH]n2c1=O	-9.9

SMILES	displacement [%]
O=C(Nc1ccc(I)cc1)c1ccc(CN2CCOCC2)cc1	4.9
COc1ccc(N(CC(=O)Nc2cccc(Cl)c2)S(=O)(=O)c2ccc(OC)c(OC)c2)cc1	11.1
NS(=O)(=O)c1ccc(CNC2CC(=O)N(c3ccccc3)C2=O)cc1 (stereo unspecified)	9.8
CN1CCN(C(=O)/C=C/c2ccc(Cl)cc2)CC1	8.2
Clc1ccc(Sc2ccc(/C=N/n3cnnc3)o2)cc1	1.8
O=C(O)c1ccc(-c2ccc([N+](=O)[O-])cc2Cl)o1	-7.7
O=C(Nc1ccccc1C(=O)N1CCCCCC1)c1ccc(Cl)cc1	4.5
COc1ccc(C2=NN(C(=O)CCC(=O)O)C(c3ccc(F)cc3)C2)cc1 (stereo unspecified)	-15
OCc1ccc(-c2cccc(Cl)c2)o1	10
COc1ccc(-c2nn(-c3ccccc3)cc2/C=C/C(=O)c2ccccc2)cc1	5.2
COc1cc(C=O)c(Br)cc1OCc1ccc(C)cc1	0.4
COc1ccc(-c2cc(C(=O)NCCc3ccccc3)c3ccccc3n2)c(OC)c1	-5.9
Cc1ccc(N2C(=O)CC(NCCc3ccc(Cl)cc3)C2=O)cc1 (stereo unspecified)	0.7
Cc1cc(C)c(OCC(=O)Nc2ccc(F)cc2)c(C)c1	9.9
CC(=O)N1N=C(c2ccccc2)CC1c1ccc([N+](=O)[O-])cc1 (stereo unspecified)	10.8
CC(C)OC(=O)COc1ccc2c3c(c(=O)oc2c1)CCCC3	-2.6
COc1ccc(C2Nc3ccccc3C(=O)N2Cc2ccccc2)cc1 (stereo unspecified)	17.4
CC(C)CN1C(=O)/C(=C/c2ccc(Cl)c(Cl)c2)SC1=S	14.7
CCC12CC3CC(C1)CC(C(=O)NNC(N)=O)(C3)C2	-4
COc1c(Cl)cc(C(=O)Nc2cccc3ccccc23)cc1Cl	12.1
O=C(NC(=S)Nc1ccc2oc(-c3cccc(I)c3)nc2c1)c1ccco1	2.4
COc1ccc(-n2nc3cc(C)c(NC(=O)c4ccccc4[N+](=O)[O-])cc3n2)cc1	2.9

SMILES	displacement [%]
O=C(NN=C1c2ccccc2-c2ccccc21)c1ccccn1	0.8
O=C(Nc1ccc(F)cc1)N1CCN(C(=O)c2ccco2)CC1	-6.1
COc1ccccc1C(=O)N/C(=C/c1ccc(Br)cc1)C(=O)N1CCCC1	0.8
CCOC(=O)c1c(N)nc(C)n1-c1ccc(OC)cc1	13.5
O=C(c1ccc(S(=O)(=O)c2ccc(Cl)cc2)cc1)c1ccc(S(=O)(=O)c2ccc(Cl)cc2)cc1	-2.1
COc1ccc(/C=C2/SC(=S)N(CC(=O)Nc3ccc(F)c(Cl)c3)C2=O)cc1OC	17.9
CCOc1cc(C=O)ccc1OCCOc1ccc([N+](=O)[O-])cc1	14.7
O=C(COc1ccc(Cl)cc1)NNC(=O)C1CCCCC1	-19.1
COc1ccc(C2/C(=C(/O)c3ccccc3)C(=O)C(=O)N2c2cccc([N+](=O)[O-])c2)cc1 (stereo unspecified)	-6.9
Cc1ccc(/C=C2\SC(=S)N(CCS(=O)(=O)O)C2=O)cc1	-1.7
O=C(c1ccccc1Br)N1CCN(c2cc(N3CCCC3)c(F)cc2[N+](=O)[O-])CC1	3
CCOC(=O)C1=C(O)/C(=C/c2cccc(OC)c2)SC1=Nc1ccccc1	-32
COC(=O)c1ccc(C(=O)OC)c(NC(=O)CC(c2ccccc2)c2ccccc2)c1	63.5
COc1ccc(-n2c(=O)c3c4c(sc3n3c(=S)[nH]nc23)COC(C)(C)C4)cc1	-6.8
CCOC(=O)C1CCN(C(=O)C(c2ccccc2)c2ccccc2)CC1	9.6
CCn1c2ccccc2c2cc(C3C(C(=O)OCC4CCCO4)=C(C)NC4=C3C(=O)CCC4)ccc21 (stereo unspecified)	-14
COc1ccc(/C(O)=C2/C(=O)C(=O)N(CCCCCC(=O)O)C2c2ccccc2)cc1 (stereo unspecified)	-0.1
O=C(/C=C/c1ccccc1)C1=C(O)C(=O)N(c2cccc(C(F)(F)F)c2)C1c1ccccc1[N+](=O)[O-] (stereo unspecified)	-5
Cc1ccc(C(=O)Nc2ccc3nn(-c4ccc(Cl)cc4)nc3c2)cc1[N+](=O)[O-]	10.6
COc1ccc(C(=O)/C=C/Nc2ccccc2I)cc1OC	13.2
Cc1ccc(S(=O)(=O)Nc2cccc([N+](=O)[O-])c2)cc1	-6.7
COc1ccc(/C=C/C(=O)c2ccc(S(=O)(=O)NCc3cccnc3)cc2)cc1	10.3

SMILES	displacement [%]
CCc1ccc(OCc2nnc(N)s2)cc1	6
CSC1=C(C#N)C2(CCCCC2)C(C#N)C(=O)N1 (stereo unspecified)	2.3
Cc1[nH]oc(=O)c1N=Nc1ccc([N+](=O)[O-])cc1	4.7
CC1(C)CC(NC(=S)Nc2cccc(Cl)c2)CC(C)(C)N1	-3.3
CC(=O)Nc1ccc(S(=O)(=O)N/N=C/c2cccnc2)cc1	-9.4
CCNC(=S)NCCN1CCCCC1	-4.6
O=C(NCCN1CCCC1=O)Nc1ccccc1	10.9
CSCCC1NC(=S)N(c2ccccc2)C1=O (stereo unspecified)	4.4
O=C(CSc1nc2ccccc2o1)Nc1ccc(/C=C/c2ccccc2)cc1	4
COc1ccc(CN2CCN(Cc3cc(OC)c(OC)cc3OC)CC2)c(OC)c1	-2.4
O=C(Nc1ccc2oc(-c3ccc(F)cc3Cl)nc2c1)c1ccco1	1.8
O=C(Cc1ccccc1)Nc1cccc(NC(=O)c2cccc(Cl)c2)c1	11.8
COc1cccc(C2=NN(C(=O)c3cccc([N+](=O)[O-])c3)C(O)(C(F)(F)F)C2)c1 (stereo unspecified)	-1.1
O=C(NCc1ccc2c(c1)OCO2)C1CC(=O)N(c2ccccc2)C1 (stereo unspecified)	-1.8
COC(=O)c1ccc(N/C=C/C(=O)c2ccccc2)cc1	11.1
O=[N+]([O-])c1cccc(N=Cc2nc(-c3ccccc3)oc2O)c1	-6.8
CCc1ccc(S(=O)(=O)NNc2ccccc2)cc1	0.5
O=C1c2ccccc2C(=O)c2c(NCCO)ccc(NCCO)c21	46.4
O=C(Oc1ccc(-c2nc3ccccc3[nH]2)cc1)c1ccc(Cl)cc1	13.6
Cc1ccc(Cl)cc1N(Cc1ccc(C(=O)Nc2cccnc2)cc1)S(=O)(=O)c1ccccc1	-3.4
CCCOC(=O)C1=C(C)NC2=C(C(=O)CC(C)(C)C2)C1c1ccc(Cl)c([N+](=O)[O-])c1 (stereo unspecified)	-8.4
CC(C)CCNS(=O)(=O)c1ccc(Cl)cc1	10.6

SMILES	displacement [%]
Cc1cc(C)c2oc(-c3ccc(C)c(NC(=O)c4ccc([N+](=O)[O-])cc4Cl)c3)nc2c1	2.5
O=C(COc1ccc(Cl)cc1Br)NCCCN1CCOCC1	-7.4
COc1ccc(N2C(=O)NC(=O)/C(=C/c3ccc(I)o3)C2=O)cc1	3.6
O=c1oc2cc(OCc3ccc([N+](=O)[O-])cc3)ccc2c2c1CCCC2	-3.3
Cc1ccc(OCCCN2CCOCC2)cc1	16.9
CC(O)CP(=O)(c1ccccc1)c1ccccc1 (stereo unspecified)	3.3
CC1CCN(C(=O)c2ccc(S(=O)(=O)N3CCOCC3)cc2)CC1	8
CC(=O)NC1=NC(=O)/C(=C\c2ccc(-c3ccc(C)c([N+](=O)[O-])c3)o2)S1	-0.4
Cn1ccnc1Sc1ccc(C2Nc3ccc4ccccc4c3C3=C2C(=O)CC(C)(C)C3)cc1[N+](=O)[O-] (stereo unspecified)	2.1
COc1ccc(C2C3COC(C)(C)CC3=NN2C(C)=O)cc1 (stereo unspecified)	1.1
O=C(O)c1ccc(C(=O)NCc2ccccc2)c(C(=O)O)c1	12.8
CCOCCOC(=O)c1ccc(NC(=O)c2cccc(Cl)c2)cc1	-5.4
Cn1c(N/N=C\c2ccc(Cl)cc2Cl)cc(=O)n(C)c1=O	-4.6
Cc1nc(Nc2nc(O)cc(=O)[nH]2)nc2c(C)cccc12	32.3
COc1cccc(/C=C(\C#N)C(=O)Nc2ccc(C)c(Cl)c2)c1O	-11.9
Cc1ccn2c(C(=O)N/N=C\c3ccccc3[N+](=O)[O-])c(C)nc2c1	5.2
CCCOc1ccccc1NC(=O)CC1Sc2ccc(C(F)(F)F)cc2NC1=O (stereo unspecified)	7.9
CC(=O)c1cccc(-c2ccc(/C=C3\C(=O)NC(=O)C(C#N)=C3C)o2)c1	20.8
